Several values for one entry are separate records, joined by “and”; a condition that tells them apart may be missing. Identical values can stand only once.
Key:
[1] = target: T1, human VEGF165 (human, UniProt P15692 27-191); experiment: cell-based or functional assay
T1 sequence (looked up): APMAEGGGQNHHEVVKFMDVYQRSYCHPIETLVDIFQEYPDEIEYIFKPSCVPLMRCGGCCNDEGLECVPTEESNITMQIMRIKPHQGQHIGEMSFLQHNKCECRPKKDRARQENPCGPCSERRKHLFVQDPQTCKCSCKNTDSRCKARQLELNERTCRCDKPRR

[2] = target: T1, human VEGF165; experiment: MSD RBA, VEGF binding to coated VEGFR1, no pre-incubation
[3] = target: T1, human VEGF165; experiment: MSD RBA, VEGF binding to coated VEGFR2, no pre-incubation
[4] = target: T1, human VEGF165; experiment: SPR Biacore T100, Protein A capture, VEGF165 analyte, 37 C, 1:1 model
[5] = target: T1, human VEGF165; experiment: MSD RBA, VEGF binding to coated VEGFR2 (second set)
[6] = target: T1, human VEGF165; experiment: ITC, VEGF165 titrated into construct, 25 C, 1:1 model
[7] = target: T1, human VEGF165; experiment: MSD RBA, VEGF binding to coated VEGFR2, no pre-incubation; remark: listed apart in the source
[8] = target: T1, human VEGF165; experiment: SPR Biacore T100, Protein A capture, VEGF165 analyte, 37 C, 1:1 model; remark: listed apart in the source
[9] = target: T1, human VEGF165; experiment: SPR Biacore T100, Protein A capture, VEGF165 analyte, 37 C, 1:1 model (kd: Too tight)
[10] = target: T1, human VEGF165; experiment: SPR Biacore T100, Protein A capture, VEGF165 analyte, 37 C, 1:1 model; remark: listed apart in the source
[11] = target: T1, human VEGF165; experiment: SPR Biacore T100, Protein A capture, VEGF165 analyte, 37 C, 1:1 model (Kd, KD: Out of the range)
[12] = target: T1, human VEGF165; experiment: SPR Biacore T100, Protein A capture, VEGF165 analyte, 37 C, 1:1 model (kd: At the limit of measurement)
[13] = target: T1, human VEGF165; experiment: SPR Biacore T100, Protein A capture, VEGF165 analyte, 37 C, 1:1 model (off-rate near limit of measurement)
[14] = target: T1, human VEGF165; experiment: SPR Biacore T100, Protein A capture, VEGF165 analyte, 37 C, 1:1 model (biphasic curves)
[15] = target: T1, human VEGF165; experiment: SPR Biacore T100, Protein A capture, VEGF165 analyte, 37 C, 1:1 model (kd: Too tight; fit not ideal)

B1: DMS30004 (C-terminal Fc fusion of K-044-255 dAb, GS(TVAAPSGS)x3 Linker, Fc-dAb) (Fc fusion)
chain: [human IgG1 Fc and a few adjoining residues not shown]GSTVAAPSGSTVAAPSGSTVAAPSGSDIQMTQSPSSLSASVGDRVTITCRASQWIGPELKWYQQKPGKAPKLLIYHGSILQSGVPSRFSGSGSGTDFTLTISSLQPEDFATYYCQQYMYYPKTFGQGTKVEIKR
notes: Vk Fc-dAb; dimer
[1]
  HUVEC proliferation, maximal inhibition: ~100%
[2]
  EC50: 0.0038 µg/mL and 0.051 nM
  Max. % Inhibition: 87.1%
[3]
  EC50: 0.00312 µg/mL and 0.042 nM
  Max. % Inhibition: 91%
[4]
  Kd: 4 pM

B2: DMS30023 (DT02-K-044-085-HingeIgG1Linker-Fc-GS(TVAAPSGS)x3 Linker-DT02-K-044-085 dAb-Fc-dAb) (Fc fusion)
chain: DIQMTQSPSSLSASVGDRVTITCRASQWIGPELKWYQQKPGKAPKLLIYHGSILQSGVPSRFSGSGSGTDFTLTISSLQPEDFATYYCQQYMYYPHTFGQGTKVEIKRV[human IgG1 Fc with changes not shown]GSTVAAPSGSTVAAPSGSTVAAPSGSDIQMTQSPSSLSASVGDRVTITCRASQWIGPELKWYQQKPGKAPKLLIYHGSILQSGVPSRFSGSGSGTDFTLTISSLQPEDFATYYCQQYMYYPHTFGQGTKVEIKR
notes: dimer; also called DMS30023ITC; DMS30023 (CR290911)
[5]
  EC50: 0.0052 µg/mL and 0.052 nM
  Max. % Inhibition: 74.7%
[6]
  Ka: 3.78e+07 M⁻¹
  N (VEGF165 (monomer)/antibody): 2.1
  ΔH: -80.8 kJ/mol
  ΔS: -29.9 cal/mol/deg
[7]
  EC50: 0.00323 µg/mL and 0.031 nM
[8]
  Kd: 6.85 pM
  koff: 9.13e-05 s⁻¹
  kon: 1.33e+07 M⁻¹ s⁻¹

B3: C085 alb d 2 (C-terminal Fc fusion of K-044-085 dAb (Albumin Domain 2)) (Fc fusion)
chain: [human IgG1 Fc not shown]ENDEMPADLPSLAADFVESKDDIQMTQSPSSLSASVGDRVTITCRASQWIGPELKWYQQKPGKAPKLLIYHGSILQSGVPSRFSGSGSGTDFTLTISSLQPEDFATYYCQQYMYYPHTFGQGTKVEIKR
notes: Vk Fc-dAb; dimer; also called C085 Alb DOM2
[9]
  kon: 7.52e+06 M⁻¹ s⁻¹

B4: DMS30026 (C-terminal Fc fusion of K-044-085 dAb ((TGLDSP)x4)) (Fc fusion)
chain: [human IgG1 Fc not shown]TGLDSPTGLDSPTGLDSPTGLDSPDIQMTQSPSSLSASVGDRVTITCRASQWIGPELKWYQQKPGKAPKLLIYHGSILQSGVPSRFSGSGSGTDFTLTISSLQPEDFATYYCQQYMYYPHTFGQGTKVEIKR
notes: dimer; also called C085 Fibrx4; C085 Fibr4
[10]
  kon: 8.12e+06 M⁻¹ s⁻¹
[11]
  kon: 8.49e+06 M⁻¹ s⁻¹
[12]
  kon: 7.72e+06 M⁻¹ s⁻¹
[13]
  Kd: 1.59 pM
  koff: 1.29e-05 s⁻¹

B5: DMS30013 (C-terminal Fc fusion of K-044-085 dAb, Albumin Domain 3 Linker, Fc-dAb) (Fc fusion)
chain: [human IgG1 Fc and a few adjoining residues not shown]EVDETYVPKEFNAETFTFHADDIQMTQSPSSLSASVGDRVTITCRASQWIGPELKWYQQKPGKAPKLLIYHGSILQSGVPSRFSGSGSGTDFTLTISSLQPEDFATYYCQQYMYYPHTFGQGTKVEIKR
notes: Vk Fc-dAb, Fc starts AS
[9]
  kon: 8.74e+06 M⁻¹ s⁻¹

B6: DMS30014 (C-terminal Fc fusion of K-044-085 dAb, Albumin Domain 3 Linker, Fc-dAb) (Fc fusion)
chain: [human IgG1 Fc not shown]EVDETYVPKEFNAETFTFHADDIQMTQSPSSLSASVGDRVTITCRASQWIGPELKWYQQKPGKAPKLLIYHGSILQSGVPSRFSGSGSGTDFTLTISSLQPEDFATYYCQQYMYYPHTFGQGTKVEIKR
notes: Vk Fc-dAb, Fc starts THT; dimer
[12]
  kon: 8.68e+06 M⁻¹ s⁻¹

B7: N085 TVAAPS (N-terminal Fc fusion of K-044-085 dAb (TVAAPS)) (Fc fusion)
chain: DIQMTQSPSSLSASVGDRVTITCRASQWIGPELKWYQQKPGKAPKLLIYHGSILQSGVPSRFSGSGSGTDFTLTISSLQPEDFATYYCQQYMYYPHTFGQGTKVEIKRTVAA[human IgG1 Fc and a few adjoining residues not shown]
notes: Vk dAb-Fc; dimer; also called 1xTVAAPS
[14]
  Kd: 7.86 pM
  koff: 9.08e-05 s⁻¹
  kon: 1.16e+07 M⁻¹ s⁻¹
[15]
  kon: 8.07e+06 M⁻¹ s⁻¹

Reference: patent US20170029494A1 (GlaxoSmithKline, published 2017)
